{"source": "PubChem BioAssay AID463173", "about": "(ICCB-Longwood Screening Facility, Harvard Medical School, 2010)", "note": "Among all 52,000 compounds or so, about 4,300 (8.3%) were called active. Cut-off read from the data, not from the text of the source: active = survival mostly below about 52% (no sharp cut-off); inactive = mostly above about 56%. This is one part of the list.", "data": [{"test_system": "DeltatarO mutant", "assay": "S. aureus survival, RN4220 and DeltatarO strains – OD600, teichoic acid synthesis inhibitors, primary screen (AID 463173)", "conditions": "S. aureus RN4220 wild type/DeltatarO growth, OD600, 18 h, hits give low values, screened at 18.75 µg/mL (by protocol)", "values": [{"smiles": "CCCOc1ccc(CNC(=O)C(C)n2nc(C)n3c(cc4occc43)c2=O)cc1", "note": "(stereo not given)", "survival": "inactive: 57%"}, {"smiles": "CC(C)(C)Sc1cc(C(=O)O)sc1C(=O)O", "survival": "inactive: 96%"}, {"smiles": "COc1ccc(NC(=O)CC2C(=O)N(c3ccc(OC)cc3)C(=O)N2C2CCCCC2)cc1", "note": "(stereo not given)", "survival": "inactive: 83%"}, {"smiles": "Cc1c(Cl)cccc1-n1c(SCC(=O)NCc2ccccc2)nc2n[nH]c(C)c2c1=N", "survival": "inactive: 126%"}, {"smiles": "COc1cccc(C(=O)N2CC(=O)Nc3ccc(C)cc3C2c2ccc(F)cc2)c1OC", "note": "(stereo not given)", "survival": "inactive: 175%"}, {"smiles": "Cc1ccc(Nc2cc(=O)[nH]c(=O)[nH]2)cc1C", "survival": "inactive: 72%"}, {"smiles": "Cc1ccc2[nH]c(CSc3nnc(NC(=O)COc4ccccc4C)s3)cc(=O)c2c1", "survival": "inactive: 117%"}, {"smiles": "COc1ccc(Nc2cc(C(=O)NCCCN(C)c3ccccc3)c3ccccc3n2)c(OC)c1", "survival": "inactive: 96%"}, {"smiles": "CCCOCc1cc(CN2CCN(c3cccc(Cl)c3)CC2)c(O)c2ncccc12", "survival": "inactive: 63%"}, {"smiles": "Cc1cccc(C)c1NC(=O)c1c(C)oc2c1C1=NCCN1C=N2", "survival": "inactive: 89%"}, {"smiles": "COc1ccc(CC(=O)Nc2ccc(-c3nc4ccccc4s3)cc2Cl)cc1OC", "survival": "inactive: 57%"}, {"smiles": "Cc1cccc(CCNC(=O)c2ccc3c(c2)nc2n3CCOC2)c1", "survival": "inactive: 76%"}, {"smiles": "COC(=O)c1ccc(NC(=O)c2cc(S(=O)(=O)N3CCC(C)CC3)cn2C)cc1", "survival": "inactive: 135%"}, {"smiles": "CCOC(=O)c1ccc(Nc2nc(N)c3cc(OC)c(OC)cc3n2)cc1", "survival": "inactive: 69%"}, {"smiles": "Cc1oc2ncnc(N3CCCCC3)c2c1C(=O)Nc1cccc(Cl)c1C", "survival": "inactive: 109%"}, {"smiles": "CCc1ccccc1NS(=O)(=O)c1ccc(-c2coc(C)n2)cc1", "survival": "inactive: 90%"}, {"smiles": "CCC1CCCCN1S(=O)(=O)c1ccc(NC(=O)c2nc(SC)ncc2Cl)cc1", "note": "(stereo not given)", "survival": "inactive: 74%"}, {"smiles": "Cn1c2c(c(=O)n(C)c1=O)C(c1cc(Br)ccc1F)CC(=O)N2", "note": "(stereo not given)", "survival": "inactive: 71%"}, {"smiles": "Cc1nc2cc(-c3ccccc3)nn2c(C)c1CCC(=O)NCCc1ccccc1", "survival": "inactive: 54%"}, {"smiles": "COc1ccc(-c2ccc3c(N)c(C(=O)Nc4ccc(C)cc4C)sc3n2)cc1OC", "survival": "inactive: 95%"}, {"smiles": "COc1ccc(S(=O)(=O)NCC(c2ccco2)N2CCN(c3ccccc3F)CC2)cc1OC", "note": "(stereo not given)", "survival": "inactive: 84%"}, {"smiles": "CC(C)c1nc2ccc(C(=O)NCc3ccc(F)cc3)cc2o1", "survival": "inactive: 78%"}, {"smiles": "Cn1c(=O)n(C)c2cc(S(=O)(=O)N3CCCCC3)ccc21", "survival": "inactive: 77%"}, {"smiles": "CCn1cc(C(=O)NCCCN2CCC(C)CC2)c(=O)c2cc(S(=O)(=O)N(C)C3CCCCC3)ccc21", "survival": "inactive: 96%"}, {"smiles": "Cc1nn(C)c2c1c(-c1ccccc1)cc(=O)n2C(C)C(=O)NCCc1ccc(Cl)cc1", "note": "(stereo not given)", "survival": "inactive: 99%"}]}]}
